Source: US20250034274A1

Legend:
[1] = target: biotinylated human TROP2 antigen (human) (UniProt P09758); assay: ELISA, immobilised biotinylated human TROP2, anti-human IgG-HRP, chemiluminescence; without protease
[2] = target: biotinylated human TROP2 antigen (human) (UniProt P09758); assay: ELISA, immobilised biotinylated human TROP2, anti-human IgG-HRP, chemiluminescence; antibody pre-incubated with CAPN1
[3] = target: biotinylated human TROP2 antigen (human) (UniProt P09758); assay: ELISA, immobilised biotinylated human TROP2, anti-human IgG-HRP, chemiluminescence; antibody pre-incubated with uPA
[4] = target: biotinylated human TROP2 antigen (human) (UniProt P09758); assay: as above; remark: listed apart in the source

Chain of UniProt P09758 (P09758 27-274): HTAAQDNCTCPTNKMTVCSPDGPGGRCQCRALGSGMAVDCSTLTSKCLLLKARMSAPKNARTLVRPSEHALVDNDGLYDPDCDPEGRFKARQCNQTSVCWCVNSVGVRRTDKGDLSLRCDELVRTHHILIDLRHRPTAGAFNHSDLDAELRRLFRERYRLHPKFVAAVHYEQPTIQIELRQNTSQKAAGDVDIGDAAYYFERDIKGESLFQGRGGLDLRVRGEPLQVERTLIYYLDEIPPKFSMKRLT

B1: anti-TROP2 masked antibody MHT3203 (antibody)
heavy: GYLALKHPWPGLAEGSGGGGSGRSANAGGPLFAAPGGSQVQLVQSGAEVKKPGASVKVSCKASGYTFTTAGMQWVRQAPGQGLEWMGWINTHSGVPKYAEDFKGRVTISADTSTSTAYLQLSSLKSEDTAVYYCARSGFGSSYWYFDVWGQGTLVTVSSASTKGPSVFPLAPSSKSTSGGTAALGCLVKDYFPEPVTVSWNSGALTSGVHTFPAVLQSSGLYSLSSVVTVPSSSLGTQTYICNVNHKPSNTKVDKRV[human IgG1 Fc not shown]
light: DIQMTQSPSSLSASVGDRVTITCKASQDVSTAVAWYQQKPGKAPKLLIYSASYRYTGVPSRFSGSGSGTDFTLTISSLQPEDFAVYYCQQHYITPLTFGQGTKLEIKRTVAAPSVFIFPPSDEQLKSGTASVVCLLNNFYPREAKVQWKVDNALQSGNSQESVTEQDSKDSTYSLSSTLTLSKADYEKHKVYACEVTHQGLSSPVTKSFNRGEC
**Q.** Which results are given for B1?
**A.** EC50 (read off the curve) [1]: 90 nM; EC50 (read off the curve) [2]: 4 nM; EC50 (read off the curve) [3]: 0.5 nM; EC50 (read off the curve) [4]: 0.6 nM

B2: anti-TROP2 masked antibody MHT3219 (antibody)
heavy: GYLALKHPWPGLAEGSGGGGPLFAAPGGSGRSANAGGSQVQLVQSGAEVKKPGASVKVSCKASGYTFTTAGMQWVRQAPGQGLEWMGWINTHSGVPKYAEDFKGRVTISADTSTSTAYLQLSSLKSEDTAVYYCARSGFGSSYWYFDVWGQGTLVTVSSASTKGPSVFPLAPSSKSTSGGTAALGCLVKDYFPEPVTVSWNSGALTSGVHTFPAVLQSSGLYSLSSVVTVPSSSLGTQTYICNVNHKPSNTKVDKRV[human IgG1 Fc not shown]
light: DIQMTQSPSSLSASVGDRVTITCKASQDVSTAVAWYQQKPGKAPKLLIYSASYRYTGVPSRFSGSGSGTDFTLTISSLQPEDFAVYYCQQHYITPLTFGQGTKLEIKRTVAAPSVFIFPPSDEQLKSGTASVVCLLNNFYPREAKVQWKVDNALQSGNSQESVTEQDSKDSTYSLSSTLTLSKADYEKHKVYACEVTHQGLSSPVTKSFNRGEC
**Q.** Which EC50 (read off the curve) [1] does the source give for B2 here?
**A.** 100 nM

**Q.** What about the EC50 (read off the curve) [4] of the same binder?
**A.** 0.5 to 0.6 nM

B3: anti-TROP2 masked antibody MHT3423 (antibody)
heavy: GYLALKHPWPGLAEGSGGGGSGRSAGGGGGSGGGGSGGGGSGGGGSQVQLVQSGAEVKKPGASVKVSCKASGYTFTTAGMQWVRQAPGQGLEWMGWINTHSGVPKYAEDFKGRVTISADTSTSTAYLQLSSLKSEDTAVYYCARSGFGSSYWYFDVWGQGTLVTVSSASTKGPSVFPLAPSSKSTSGGTAALGCLVKDYFPEPVTVSWNSGALTSGVHTFPAVLQSSGLYSLSSVVTVPSSSLGTQTYICNVNHKPSNTKVDKRV[human IgG1 Fc not shown]
light: DIQMTQSPSSLSASVGDRVTITCKASQDVSTAVAWYQQKPGKAPKLLIYSASYRYTGVPSRFSGSGSGTDFTLTISSLQPEDFAVYYCQQHYITPLTFGQGTKLEIKRTVAAPSVFIFPPSDEQLKSGTASVVCLLNNFYPREAKVQWKVDNALQSGNSQESVTEQDSKDSTYSLSSTLTLSKADYEKHKVYACEVTHQGLSSPVTKSFNRGEC
**Q.** For B3, which EC50 (read off the curve) [1] is on record?
**A.** 60 nM

**Q.** And the EC50 (read off the curve) [4]?
**A.** 0.5 nM

B4: anti-TROP2 masked antibody MHT3202 (antibody)
heavy: GYLALKHPWPGLAEGSGGGGSGRSAGGPLFAAPGGSQVQLVQSGAEVKKPGASVKVSCKASGYTFTTAGMQWVRQAPGQGLEWMGWINTHSGVPKYAEDFKGRVTISADTSTSTAYLQLSSLKSEDTAVYYCARSGFGSSYWYFDVWGQGTLVTVSSASTKGPSVFPLAPSSKSTSGGTAALGCLVKDYFPEPVTVSWNSGALTSGVHTFPAVLQSSGLYSLSSVVTVPSSSLGTQTYICNVNHKPSNTKVDKRV[human IgG1 Fc not shown]
light: DIQMTQSPSSLSASVGDRVTITCKASQDVSTAVAWYQQKPGKAPKLLIYSASYRYTGVPSRFSGSGSGTDFTLTISSLQPEDFAVYYCQQHYITPLTFGQGTKLEIKRTVAAPSVFIFPPSDEQLKSGTASVVCLLNNFYPREAKVQWKVDNALQSGNSQESVTEQDSKDSTYSLSSTLTLSKADYEKHKVYACEVTHQGLSSPVTKSFNRGEC
**Q.** For B4, which EC50 (read off the curve) [1] is on record?
**A.** 100 nM

**Q.** And the EC50 (read off the curve) [2]?
**A.** 5 nM

**Q.** And the EC50 (read off the curve) [4]?
**A.** 0.6 nM
